From PMC8550248, “An unexpected role for Dicer as a reader of the unacetylated DNA binding domain of p53 in transcriptional regulation” (Science Advances, 2021)

Biological target: T1, HA-tagged Dicer, from HEK293 (UniProt Q9UPY3 1-1922)
T1 construct: Dicer, full length, residues 1-1922; cDNA from Addgene plasmid 19873, subcloned into pRK5; the length 1922 fits human Dicer; also called purified Dicer; purified recombinant Dicer protein; source: HEK293, transfected
Assay: pull-down; GST-p53 fragments immobilised on GST Bind Resin, incubated with purified Dicer 4 hours at 4°C, washed with BC100 buffer six times; Western blot
Conditions: both partners purified

B1: GST-p53 […] (domain or fragment)
chain: not shown
- binding result: binds
